Results from PubChem BioAssay AID1745853 (National Center for Advancing Translational Sciences (NCATS), 2022).
Several values for one entry are separate records, joined by “and”; a condition that tells them apart may be missing. Equal entries are not always repeated. The list shows a part of the results. Further columns of the screen follow, without active or inactive calls.

Columns and labels:
Assay in all cases: Primary Screen for Target Class Profiling of Small Molecule Inhibitors of Methyltransferases
[1] = target: Glycine N-methyltransferase (Homo sapiens) (UniProt Q14749); conditions: purified enzyme, MTase-Glo SAH luminescence; measured here: GNMT inhibition; at 40 µM; stronger effect = lower value
Summary of the method: (§1)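 Each enzyme was reacted with SAM and its substrate, with compounds tested once at 40 uM; SAH formed was read by MTase-Glo luminescence.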

[2] = target: Guanidinoacetate N-methyltransferase (Homo sapiens) (UniProt Q14353); conditions: purified enzyme, MTase-Glo SAH luminescence; measured here: GAMT inhibition; at 40 µM; stronger effect = lower value
Summary of the method: as §1

[3] = target: Histamine N-methyltransferase (Homo sapiens) (UniProt P50135); conditions: purified enzyme, MTase-Glo SAH luminescence; measured here: HNMT inhibition; at 40 µM; stronger effect = lower value
Summary of the method: as §1

[4] = target: Nicotinamide N-methyltransferase (Homo sapiens) (UniProt P40261); conditions: purified enzyme, MTase-Glo SAH luminescence; measured here: NNMT inhibition; at 40 µM; stronger effect = lower value
Summary of the method: as §1

[5] = target: Phenylethanolamine N-methyltransferase (Homo sapiens) (UniProt P11086); conditions: purified enzyme, MTase-Glo SAH luminescence; measured here: PNMT inhibition; at 40 µM; stronger effect = lower value
Summary of the method: as §1
% is set by controls: 0 for no effect and ±100 for the full control effect.

| SMILES | activity change, negative = inhibition [1] | activity change, negative = inhibition [2] | activity change, negative = inhibition [3] | activity change, negative = inhibition [4] | activity change, negative = inhibition [5] |
| --- | --- | --- | --- | --- | --- |
| COc1ccc(OC2CCN(C3CCCC3)CC2)c(C(=O)NCCCN2CCCC2=O)c1 | 5.21% | 1.38% | -9.05% | 0.226% | -6.52% |
| CCOc1ccc(CCNC(=O)c2cc3n(n2)CC(C)(C(=O)NCc2ccc(F)cc2)N(C)C3=O)cc1 (stereo not given) | -0.343% | 2.33% | -8.43% | 6.25% | -0.122% |
| CC(C)CCNC(=O)C1(C)Cn2nc(C(=O)NCCCN3CCCCC3)cc2C(=O)N1C (stereo not given) | 1.89% | 4.29% | -2.2% | 7.65% | 2.3% |
| NC(c1ccccc1)c1nnc2n1CCN(C(=O)N1CCOCC1)C2 (stereo not given) | -7.38% | -7.47% | -0.739% | -4.31% | -3.78% |
| c1cnc2cc3c(cc2n1)C1CNCC3C1 | -10.9% and 1.25% | 11.9% and -1.54% | 6.76% and 0.365% | -2.27% and -13.3% | 7.2% and -6.69% |
| CCc1ccc2c(-c3cccc(Cl)c3)nc(=O)n(CC)c2n1 | 0.995% | 13.6% | 9.57% | -13.4% | 1.87% |
| O=C(CCCCCCC(=O)Nc1ccccc1)NO | 2.23% | 1.29% | 7.86% | -9.84% | -0.499% |
| COc1ccc(C(=O)Nc2nc3c(s2)C[C@@H]2[C@](C)(CO)[C@H](O)CC[C@@]2(C)[C@@H]3CC(=O)NC2CCCC2)cc1 | -4.1% | -2.58% | -4.39% | -7.8% | 3.27% |
| Clc1ccccc1C1(c2ccnc(C3CC3)n2)CCNCC1 | -6.06% | -7.79% | -28.4% | -34.2% | -11.2% |
| Cc1cc(F)ccc1-c1nc(NCCN=C(N)NC#N)nc2c1ccc(=O)n2-c1c(F)cccc1F | -14% | -6.87% | 1.12% | -29.6% | -12.5% |
| CC1CCN(S(=O)(=O)c2ccc3c(c2)oc(=O)n3CC(=O)NCc2ccc(F)cc2)CC1 | 1.51% | 0.817% | -1.07% | 0.612% | -1.16% |
| Cc1occc1C(=O)N1CC(F)(F)C[C@H]1c1nnc(C2CC2)o1 | -0.893% | -2.22% | 0.32% | -4.04% | 0.268% |
| COc1ccc(OC)c(S(=O)(=O)N2CCc3nc(-c4ccccc4)ncc3C2)c1 | 2.51% | 0% | 2.6% | -0.752% | 2.5% |
| COc1ccccc1CCNC(=O)c1ncn2c1C(=O)N(C1CC1)C(C)(C(=O)NCc1ccc(F)cc1)C2 (stereo not given) | 0.551% | 1.19% | 3.21% | 0.78% | 5.52% |
| Cc1ccc(CNC(=O)Cn2nc3n(C(C)C)c(=O)c4ccc(C(=O)NCC(C)C)cc4n3c2=O)cc1 | 2.29% | 2.92% | 6.22% | -0.825% | 0.886% |
| COc1ccccc1C(=O)N1Cc2c(C(=O)NC3CC3)nn(C)c2C1 | -0.667% | 2.21% | 2.54% | -1.02% | 14.7% |
| Cn1c(=O)n(C)c2cc(S(=O)(=O)N(Cc3ccccc3)C(=O)c3cccs3)ccc21 | 2.11% | 0% | 0.669% | -17.8% | -1.08% |
| Nc1nonc1C(=Nc1ccc(F)c(Cl)c1)NO | -6.58% | -1.45% | 3.51% | -13% | 1.49% |
| CCCn1c(=O)c2ccc(C(=O)NC(C)C)cc2n2c(=O)n(CC(=O)Nc3cc(C)cc(C)c3)nc12 | 3.93% | 0% | 4.84% | 3.57% | 2.84% |
| CC1(C(=O)NC2CCCC2)Cn2c(ccc2-c2ccco2)C(=O)N1c1ccc(F)cc1 (stereo not given) | 0.653% | 0% | 1.27% | -2.76% | -4.71% |
| CC(C)Cn1c(=O)c2cc(F)ccc2n2c(SCC(=O)Nc3cc(F)ccc3F)nnc12 | -4.67% | 4.71% | 3.03% | -11.8% | -0.144% |
| CCCN(CCC)C(=O)Cn1c(=O)oc2cc(S(=O)(=O)N3CC(C)CC(C)C3)ccc21 (stereo not given) | -5.87% | 0.363% | -9.45% | -1.21% | -10.6% |
| COc1ccccc1CNC(=O)C1c2c(n(C)c3ccccc23)SCC(=O)N1c1ccc2c(c1)OCCO2 (stereo not given) | 7.47% | 2.19% | 2.56% | -0.415% | 4.64% |
| O=C1NCCCN1C1CCN(Cc2ccncc2)CC1 | -1.38% | -12.2% | -1.65% | -14.8% | -6.15% |
| Cc1ccc(CNC(=O)Cn2nc3n(C(C)C)c(=O)c4ccc(C(=O)NC5CCCC5)cc4n3c2=O)cc1 | 3.31% | 6.18% | 1.23% | -7.46% | -2.61% |
| C=C1[C@@H](OC(C)=O)CC[C@@]2(C)[C@@H](OC(C)=O)[C@H](OC(C)=O)C3=C(C)C[C@H](OC(=O)C(C)CC)[C@@H]([C@@H](OC(C)=O)[C@H]12)C3(C)C (stereo not given in full) | -3.69% | -3.92% | 3.95% | -20.7% | -10.6% |
| CC(CCc1ccccc1)N1C(=O)c2cc3sccc3n2CC1(C)C(=O)NC1CCCCCC1 (stereo not given) | -7.6% | 4.24% | -2.34% | -7.77% | -3.47% |
| O[C@@H]1C[C@@H](c2nc(-c3ccncc3)no2)N(Cc2cccs2)C1 | -7.17% | -5.26% | -2.35% | -12.2% | 7.81% |
| Cc1ccc(CCNC(=O)c2ncn3c2C(=O)N(C2CC2)C(C)(C(=O)NC2CCCC2)C3)cc1 (stereo not given) | -2.65% | 0% | 3.7% | -1.08% | 0.324% |
